# Experimental data published in PubChem BioAssay AID485344 (National Center for Advancing Translational Sciences (NCATS), 2010).
# Among all 340,000 compounds or so, about 6,900 (2%) were called active. No stated cut-off is given here; in the data, active means inhibition above about 30%; inactive means below that, where a call was filed. The list shows a part of the results, in another mix than the full data. Where no call is shown, the source filed none.
# Biological target: D(2) dopamine receptor (Homo sapiens) (UniProt P14416)
# Test: HTS Assay for Allosteric Antagonists of the Human D2 Dopamine Receptor: Primary Screen for Antagonists; further: 0% is about no effect
# Details: HEK293 TREx D2 cells, calcium flux, dopamine EC80; at 10 µM; stronger effect = higher value
# Text: NIH Chemical Genomics Center [NCGC] NIH Molecular Libraries Probe Centers Network [MLPCN] MLPCN Grant: NS064831-01 Assay Submitter (PI): David Sibley Dopamine receptors (DARs) are involved in the etiology and/or therapy of a number of neuropsychiatric and endocrine disorders. For instance, all receptor-based antiparkinsonian drugs work via stimulating the D2 DAR subtype whereas all FDA-approved antipsychotic agents are antagonists of this receptor. […] There are three different types of allosteric modulators that we are seeking, two of which will stimulate or augment receptor signaling, allosteric agonists and potentiators, while the third, allosteric antagonists, will attenuate receptor signaling. The present primary screening assay measures compound antagonism after an EC80 addition of dopamine by tracking calcium flux in a […], inducible Hek293 Trex D2 cell line.
# Freshly passaged cells are plated in 1536 well black, clear bottom plates at a density of 4000 cells/well in 3 ul of complete media containing 1x tetracycline inducer. After an overnight incubation at 30 C in 5% CO2, cells are loaded with 2 ul of the no wash Calcium Assay Kit (ABD Bioquest) and incubated at room temperature for 30 to 90 minutes. Agonist read: A 10 cycle (1 second/cycle) baseline measurement is taken and then the FDSS online 1536 pintool delivers 23 nl of compound library (as well as dopamine controls) to the plate. The plate is measured for kinetically at 1 cycle/sec for 180 seconds. Following the 180 second read, 1 ul of an EC80 (negative modulation assay) is delivered by an onboard pipette head. Measurements are taken kinetically for an additional 180 seconds.
# Chain of UniProt P14416 (P14416 whole entry, looked up): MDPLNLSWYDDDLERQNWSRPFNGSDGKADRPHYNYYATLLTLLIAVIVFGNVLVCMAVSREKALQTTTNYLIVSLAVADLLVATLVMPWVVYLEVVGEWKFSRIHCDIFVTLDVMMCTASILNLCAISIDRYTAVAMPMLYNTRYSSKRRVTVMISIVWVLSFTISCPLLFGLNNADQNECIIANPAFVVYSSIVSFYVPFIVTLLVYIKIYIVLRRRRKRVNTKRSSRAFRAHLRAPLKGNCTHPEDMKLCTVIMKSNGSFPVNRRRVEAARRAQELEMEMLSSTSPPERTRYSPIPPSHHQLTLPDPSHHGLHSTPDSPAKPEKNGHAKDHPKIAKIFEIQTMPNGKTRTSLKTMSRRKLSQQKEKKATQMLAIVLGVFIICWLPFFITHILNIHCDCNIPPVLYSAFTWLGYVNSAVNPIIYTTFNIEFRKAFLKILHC
row,SMILES,inhibition
1,Cc1nn(-c2ccc(N3CCCC3)nn2)c(C)c1CCC(=O)Nc1ccccc1,4.1%
2,CCCCOC(=O)c1ccc(NC2=NS(=O)(=O)c3ccccc32)cc1,9%
3,Cc1ccc(-c2nc3n(n2)C(=O)CC(c2ccc(C)cc2)S3)cc1 (stereo unspecified),-4.17%
4,Cc1ccc(NS(=O)(=O)c2c(C)nc3sccn3c2=O)c(Cl)c1,-1.77%
5,Cc1ccc(-n2c(=O)c3c(c4cc(C)ccc4n3C)n(CC(=O)NCC3CCCO3)c2=O)cc1 (stereo unspecified),-8.83%
6,COc1ccccc1NS(=O)(=O)c1ccc(C)c(C(=O)NC2CCN(Cc3ccccc3)CC2)c1,active: 76.6%
7,COc1cc(Cl)c(NC(=O)CC(C)S(=O)(=O)c2cc3c(cc2C)NC(=O)CO3)c(OC)c1 (stereo unspecified),-6.5%
8,Cc1ccc(NC(=O)CSc2nncn3c2cc2sccc23)cc1F,-5.74%
9,O=C(Nc1ccc(Cl)c(-c2nc3ccccc3o2)c1)c1cccc2c(Cl)cccc12,-6.24%
10,Cc1ccc(CSC2=Nc3ccccc3C3=NC(CCC(=O)NCc4cccs4)C(=O)N23)c(C)c1 (stereo unspecified),-3.91%
11,COc1ccc(Nc2ccc3cc(S(=O)(=O)N4CCCC4)ccc3n2)cc1OC,-1.85%
12,Fc1ccc(-c2nc3c4c(-c5ccccc5)c(-c5ccccc5)oc4ncn3n2)cc1,8.6%
13,CCC(Oc1ccccc1)C(=O)N1CCN(Cc2cc(=O)n3nc(-c4cccc(C)c4)sc3n2)CC1 (stereo unspecified),-0.404%
14,CCOC(=O)c1ccc(N2CCN(c3cc(Cl)ccc3C)CC2)c(NC(=O)Nc2ccc(OCC)cc2)c1,6.27%
15,O=C1C2CCCCN2C(=O)N1CCCCN1CCN(c2cccc(Br)c2)CC1 (stereo unspecified),active: 86.6%
16,Cc1cc(N2CCN(C)CC2)nc2ccc(NC(=O)Nc3ccc(F)cc3F)cc12,14.6%
17,COc1cccc(-c2ccc3c(N)c(C(=O)c4ccc(F)cc4)sc3n2)c1,-7.78%
18,O=C(O)/C(=C\c1cccs1)Sc1nnc(-c2ccc(F)cc2)o1,active: 35%
19,CC(NC(=O)CCCN1C(=O)CCn2nc(-c3cn(C)c4ccccc34)cc21)c1ccccc1 (stereo unspecified),1.33%
20,CC(C)c1ccc(NC(=O)Cn2ncc3ccccc32)cc1,active: 32.4%
21,CCOC(=O)c1c(C)oc2nc(C)nc(NCC3CCN(Cc4ccc(F)cc4)CC3)c12,-23.7%

row,SMILES,inhibition
1,O=C(CSc1nc2ccc(Cl)cc2[nH]1)NCCc1ccccc1,active: 39.4%
2,COc1ccc(CNc2ncnc3c2cnn3-c2ccc(Cl)cc2)cc1,11.5%
3,CCOC(=O)c1cc2c(=O)n3ccccc3nc2n(CCOC)c1=NC(=O)c1cc2ccccc2o1,15.6%
4,c1ccc(N2CCN(Cc3nnc(-c4ccc5c(c4)OCO5)o3)CC2)cc1,1.94%
5,COc1ccc(C2=NS(=O)(=O)N(C)C(C(=O)Nc3ccc(OC(F)(F)F)cc3)=C2)cc1,13%
6,c1ccc(CC2CCN(Cc3ccccn3)CC2)cc1,active: 30.2%
7,CN(Cc1ccccc1)S(=O)(=O)c1nnc(NC(=O)c2ccccc2Cl)s1,9.33%
8,COc1ccc(-c2nc3scc(CCNS(=O)(=O)c4c(C)cc(C)cc4C)n3n2)cc1OC,-2.65%
9,CCCc1cc(=O)[nH]c(Nc2ccccc2O)n1,-4.28%
10,O=C(NCCn1cc(SCc2ccccc2)c2ccccc21)c1cccs1,-3.76%
11,CCc1nn2c(=O)cc(COC(=O)c3ccc4c(c3)OCO4)nc2s1,-6.48%
12,CC(C)(C)C1CCc2c(sc(NC(=O)c3ccccc3F)c2C(=O)NCc2ccco2)C1 (stereo unspecified),-19%
13,COc1ccccc1CNC(=O)CCCCn1c(=O)c2ccccc2n(Cc2ccccc2C)c1=O,20.9%
14,Cc1cc(C)cc(C(=O)Nc2cccc(-c3nc4ncccc4o3)c2C)c1,-5.58%
15,CC(=O)c1c(C)n(-c2ccc(Cl)cc2)c2ccc(OC(=O)COc3ccccc3)cc12,-0.984%
16,COc1ccc(CCNc2nc3ccc(C)cc3n3cnnc23)cc1OC,16.8%
17,O=C(c1cccn1-c1nnc(N2CCCCC2)s1)N1CCN(c2ccc(Cl)cc2)CC1,9.51%
18,CCOC(=O)CSc1nc(-c2ccc(F)cc2)cc(C(F)(F)F)c1C#N,15%
19,COc1ccc(Cl)cc1N=C1NC(=O)CC(C(=O)Nc2ccccc2C(F)(F)F)S1 (stereo unspecified),8.08%
20,COc1ccc(S(=O)(=O)N(CC(=O)Nc2cc(C)cc(C)c2)c2ccc(Cl)cc2)cc1,-14.5%
21,CCn1c(C(=O)N2CCC(C(=O)N3CCN(c4ccc(OC)cc4)CC3)CC2)cc2sccc21,-5.93%

row,SMILES,inhibition
1,CCNc1nc(NC(C)(C)C)nc(Oc2ccc(=O)n(-c3ccccc3)n2)n1,4.08%
2,CCc1ccccc1N1CC(c2nc3ccccc3n2CCOc2ccc(Cl)c(C)c2)CC1=O (stereo unspecified),24.5%
3,CC(C)Oc1ccc(CNC(=O)c2ccc3nc(C(C)C)oc3c2)cc1,-15.1%
4,CN(C)c1ccc(C(=O)Nc2c(C(=O)NC(C)(C)C)oc3ccccc23)cc1,12.1%
5,Cc1cc(C)cc(NC(=O)C(CC(C)C)NC(=O)C2CCCCC2)c1 (stereo unspecified),8.34%
6,COc1ccc(-c2nc(Cn3c(=O)cc(-c4ccccc4)c4c(C)nn(C)c43)c(C)o2)cc1OC,17.7%
7,CC1CCN(S(=O)(=O)c2ccc3c(ccc(=O)n3CC(=O)NCc3ccc(Cl)cc3)c2)CC1,-0.474%
8,CCOc1ccc(Nc2nc3c(S(=O)(=O)c4ccc(CC)cc4)nnn3c3ccc(Cl)cc23)cc1,-1.29%
9,CC(=O)c1cccc(NC(=O)CCc2nc3cccnc3n2Cc2cccs2)c1,4.64%
10,CCN1CCc2c(sc(-n3cccc3)c2C(C)NC(=O)Nc2cc(Cl)c(OC)cc2OC)C1 (stereo unspecified),19.1%
11,Cc1ccc(NC(=O)c2cc(S(=O)(=O)N3CCCCCC3)ccc2F)cc1F,-9.92%
12,CC(C)Oc1ccc(NC(=O)c2cc3ccccc3o2)cc1,27.8%
13,COc1ccc(CCNc2oc(COc3cccc(C)c3)nc2C#N)cc1OC,8.31%
14,CCCNC(=O)c1cnn2c(C(F)F)cc(-c3ccccc3)nc12,-0.807%
15,Cc1sc2c(c1C)c(=O)n(Cc1ccccc1)c(=O)n2CC(=O)N(C)c1ccccc1,0.891%
16,CC1(C)CC(=O)c2cc(-c3nc(-c4ccc(Cl)cc4)cs3)c(=O)[nH]c2C1,11.7%
17,CN1CCN(C(=O)c2ccc3c(c2)N(Cc2ccc(F)cc2)C(=O)c2ccccc2S3=O)CC1 (stereo unspecified),1.78%
18,CCC(=O)N1c2ccccc2C(C)(c2ccccc2)CC1(C)C (stereo unspecified),-23.9%
19,CC(C)(C)OC(=O)N1CCC(c2c(C(=O)NCc3ccccc3)cnn2-c2ccc(F)cc2)CC1,-2.39%
